Experimental data as given in the supplement of paper PMC4967469.

How the values were obtained:
Experiment in all cases: Viability of human cancer cell lines after 72 h of drug (GDSC screen)
[1] = compound: CN(C)CCOc1ccc(-c2nc(-c3ccncc3)c(-c3ccc4c(c3)CC/C4=N\O)[nH]2)cc1 [SB590885]; conditions: top dose 5 µM; top dose inferred
Procedure: (§1)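 Human cancer cell lines in 384-well plates, medium with 10% serum, drug for 72 h over a 256-fold dose range (nine 2-fold or five 4-fold steps up to the top dose). Adherent lines were fixed and stained with the nucleic acid dye Syto60, suspension lines read with resazurin; signal relative to control wells, capped at 0 and 100%. One two-parameter sigmoid per drug and line, fitted in a mixed model over all curves with the slope shared within a line.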

[2] = compound: CCN(CC)CCCCNc1ncc2cc(-c3cc(OC)cc(OC)c3)c(NC(=O)NC(C)(C)C)nc2n1 [PD-173074]; conditions: top dose 2 µM; top dose inferred
Procedure: as §1

[3] = compound: Cc1cc(C(C)Nc2ccccc2)c2nc(N3CCOCC3)cc(=O)n2c1 [TGX221]; conditions: top dose 10 µM
Procedure: as §1

[4] = compound: CS(=O)(=O)CCNCc1ccc(-c2ccc3ncnc(Nc4ccc(OCc5cccc(F)c5)c(Cl)c4)c3c2)o1 [Lapatinib]; conditions: top dose 2 µM
Procedure: as §1

Row | Cell Line | AUC [1] | IC50 [1] [µM] | AUC [2] | IC50 [2] [µM] | AUC [3] | IC50 [3] [µM] | AUC [4] | IC50 [4] [µM]
1 | MOLT-4 (lymphoblastic leukaemia, suspension) | 0.952 | > 5 | 0.914 | 1.97 | 0.989 | > 10 | – | –
2 | MV-4-11 (leukaemia, suspension) | 0.954 | > 5 | 0.906 | 1.86 | 0.924 | > 10 | – | –
3 | MZ2-MEL (melanoma, adherent) | – | – | 0.978 | > 2 | 0.931 | > 10 | 0.933 | > 2
4 | NCI-H23 (lung adenocarcinoma, adherent) | 0.975 | > 5 | 0.988 | > 2 | 0.988 | > 10 | – | –
5 | NCI-H128 (small cell lung carcinoma, suspension) | – | – | – | – | 0.978 | > 10 | 0.977 | > 2
6 | NCI-H187 (small cell lung carcinoma, suspension) | 0.988 | > 5 | 0.985 | > 2 | 0.988 | > 10 | – | –
7 | NCI-H446 (small cell lung carcinoma, semi-adherent) | 0.985 | > 5 | 0.957 | > 2 | 0.981 | > 10 | – | –
8 | NCI-H716 (large intestine, suspension) | – | – | – | – | 0.981 | > 10 | 0.965 | > 2
9 | NCI-H748 (small cell lung carcinoma, suspension) | – | – | – | – | 0.981 | > 10 | 0.972 | > 2
10 | NCI-H1299 (large cell lung carcinoma, adherent) | – | – | – | – | 0.981 | > 10 | – | –
11 | NCI-H1417 (small cell lung carcinoma, suspension) | – | – | 0.964 | > 2 | 0.981 | > 10 | – | –
12 | NCI-H1581 (large cell lung carcinoma, semi-adherent) | – | – | – | – | 0.99 | > 10 | 0.99 | > 2
13 | NCI-H1648 (lung adenocarcinoma, adherent) | – | – | 0.966 | > 2 | 0.939 | > 10 | 0.293 | 0.0312
14 | NCI-H1666 (lung adenocarcinoma, semi-adherent) | – | – | – | – | 0.986 | > 10 | 0.987 | > 2
15 | NCI-H1876 (small cell lung carcinoma, adherent) | 0.987 | > 5 | 0.976 | > 2 | 0.985 | > 10 | – | –
16 | NCI-H1963 (small cell lung carcinoma, suspension) | – | – | – | – | 0.991 | > 10 | 0.984 | > 2
17 | NCI-H1975 (lung adenocarcinoma, adherent) | 0.983 | > 5 | 0.98 | > 2 | 0.97 | > 10 | – | –
18 | NCI-H2171 (small cell lung carcinoma, suspension) | – | – | – | – | 0.991 | > 10 | 0.992 | > 2
19 | NCI-H2196 (small cell lung carcinoma, adherent) | – | – | – | – | 0.986 | > 10 | 0.986 | > 2
20 | NK-92MI (lymphoid neoplasm, suspension) | – | – | – | – | 0.821 | 5.27 | 0.987 | > 2
21 | NTERA-2 cl.D1 (testis, adherent) | – | – | – | – | 0.907 | > 10 | 0.897 | > 2

Row | Cell Line | AUC [1] | IC50 [1] [µM] | AUC [2] | IC50 [2] [µM] | AUC [3] | IC50 [3] [µM] | AUC [4] | IC50 [4] [µM]
22 | PL-21 (acute myeloid leukaemia, suspension) | – | – | – | – | 0.933 | > 10 | 0.977 | > 2
23 | RL95-2 (endometrium, adherent) | – | – | – | – | 0.925 | > 10 | 0.853 | 1.54
24 | SCC-3 (B-cell lymphoma, suspension) | – | – | – | – | 0.992 | > 10 | 0.991 | > 2
25 | SCC-15 (head and neck, adherent) | 0.952 | > 5 | 0.959 | > 2 | 0.979 | > 10 | – | –
26 | SIG-M5 (acute myeloid leukaemia, suspension) | – | – | – | – | 0.986 | > 10 | 0.994 | > 2
27 | SK-MEL-2 (melanoma, adherent) | – | – | 0.986 | > 2 | 0.98 | > 10 | 0.984 | > 2
28 | SK-N-DZ (neuroblastoma, adherent) | – | – | – | – | 0.932 | > 10 | 0.978 | > 2
29 | SK-UT-1 (soft tissue, adherent) | – | – | 0.923 | > 2 | 0.828 | 5.42 | 0.949 | > 2
30 | SU-DHL-1 (anaplastic large cell lymphoma, suspension) | – | – | – | – | 0.995 | > 10 | 0.997 | > 2
31 | SW872 (soft tissue, adherent) | – | – | – | – | 0.894 | > 10 | 0.981 | > 2
32 | TALL-1 (T-cell lymphoblastic leukaemia, suspension) | – | – | – | – | 0.985 | > 10 | 0.988 | > 2
33 | TC-YIK (cervix, suspension) | 0.989 | > 5 | 0.981 | > 2 | 0.991 | > 10 | – | –
34 | TE-441-T (rhabdomyosarcoma, adherent) | – | – | – | – | 0.961 | > 10 | 0.966 | > 2
35 | THP-1 (acute myeloid leukaemia, suspension) | 0.991 | > 5 | 0.991 | > 2 | 0.985 | > 10 | – | –
36 | U-87-MG (glioma, adherent) | 0.983 | > 5 | 0.985 | > 2 | 0.94 | > 10 | – | –
37 | UACC-812 (breast, adherent) | – | – | – | – | 0.991 | > 10 | 0.933 | > 2
38 | YH-13 (glioma, adherent) | 0.986 | > 5 | 0.946 | > 2 | – | – | – | –
39 | YKG-1 (glioma, adherent) | 0.975 | > 5 | 0.958 | > 2 | – | – | – | –
40 | ZR-75-30 (breast, adherent) | 0.983 | > 5 | 0.983 | > 2 | – | – | – | –
41 | huH-1 (liver, adherent) | 0.978 | > 5 | 0.975 | > 2 | – | – | – | –
42 | no-10 (glioma, adherent) | – | – | – | – | 0.752 | 3.99 | 0.956 | > 2

IC50 is the fitted dose that halves viability relative to control wells, and lower means more sensitive; a fit beyond the top or the lowest dose is shown as a bound at that dose. AUC is the area under the same curve over the 256-fold range up to the top dose, as a fraction; values near 1 show little effect. For some of these results: Any top dose called inferred was derived from the fitted curves, not read from the paper.
